# In all, about 43,000 compounds went through this assay and about 200 (0.47%) were called active. Inconclusive results (about 12%) are left out. Calls follow the shape of the dose curve; as a rule, active = well fitted cell-killing curve with a large enough effect; inconclusive = small, poorly fitted or top-dose-only effect, or effect the other way; inactive = flat fitted curve, though single readings scatter. This is one part of the list.
# Experiment: Cell viability qHTS assay in S16 Pmp22-F2sN cells; also: nearly all actives have a fitted effect of over 65% in size
# Conditions: S16 Pmp22-F2sN Schwann cells viability, CellTiter-Glo, 24 h; series mostly up to 57.5 µM; activity change, negative = cytotoxicity: at the top concentration
# Summary of the method: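 Viability was measured by CellTiter-Glo luminescence (15 min, room temperature). This followed 24 h at 37 °C of compound exposure (23 nL pin transfer) in S16 Pmp22-F2sN Schwann cells, 500-1,000 per well.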
# % is scaled to controls: 0 for no effect and ±100 for the full control effect; potency is read from the fitted curve at half-maximal effect.
SMILES,"activity change, negative = cytotoxicity",Potency
COc1cccc(Cc2nc3ccccc3nc2SCC(=O)N2CCCc3ccccc32)c1,inactive: -11.5%,–
COc1ccc(CNC(=O)CC(c2ccc(OC)cc2)N2Cc3ccccc3C2=O)cc1 (stereo unspecified),inactive: 7.78%,–
Cc1ccc(NC(=O)c2ccc(CN3CC(=O)N4CCCCC4C3=O)cc2)c(C)c1 (stereo unspecified),inactive: 12.5%,–
CCOc1cccc(C(=O)Nc2cc(C)c(O)c(-c3nc4ncccc4o3)c2)c1,inactive: -1.95%,–
Cc1ccc2c(=O)c(C(=O)c3ccc(F)cc3)cn(CC(=O)Nc3ccc4c(c3)OCCO4)c2n1,inactive: 8.51%,–
O=C(c1ccc2c(c1)N(Cc1ccccc1)C(=O)c1ccccc1S2(=O)=O)N1CCc2ccccc21,inactive: 9.9%,–
COc1ccc(OC)c(-n2c3c(cc(-c4nc(-c5ccc(Cl)cc5)cs4)c2=O)C(=O)CC(C)(C)C3)c1,inactive: -1.78%,–
CCCNC(=O)CN1C(=O)COc2ccc(S(=O)(=O)N3CCC(C)CC3)cc21,inactive: 7.14%,–
Cc1c(NC(=O)C(C)(C)Oc2ccc(Cl)cc2)cccc1-c1nc2ccccc2o1,inactive: 1.56%,–
CCOC(=O)c1c(NC(=O)c2cc(=O)c3cc(C)cc(C)c3o2)sc(C)c1C,inactive: -3.02%,–
Cc1ccc(-c2nn(CC(=O)NCc3ccccc3)c3c2cnc2ccc(F)cc23)cc1C,inactive: 13%,–
O=C(CSc1nccn1C1CCCC1)Nc1cc(C(F)(F)F)ccc1Cl,inactive: 4.12%,–
O=C(CS(=O)(=O)c1cccc2nsnc12)NCc1ccccc1,inactive: 6.11%,–
COc1cc(NC(=O)C(Cc2ccccc2)NS(=O)(=O)c2cccs2)cc(OC)c1 (stereo unspecified),inactive: 1.26%,–
COc1cc(OC)c(NC2=C(c3ccc(C(F)(F)F)cc3)C(=O)c3ccccc32)cc1Cl,inactive: -4.84%,–
O=C(Cn1c(=O)nc(-c2ccccc2)c2ccccc21)N1CCN(c2ccc(F)cc2)CC1,inactive: -1.82%,–
O=C(O)CSc1nc2ccc(NC(=O)COc3ccc(Cl)cc3)cc2s1,inactive: -3.68%,–
Cc1ccc(-n2c(=O)c3c(c4cc(C)ccc4n3C)n(CC(=O)c3ccc(Cl)cc3)c2=O)cc1,inactive: 2.17%,–
CC(C)Oc1ccccc1NC(=O)CSc1nccn1C,inactive: -6.47%,–
C#CCn1c(=O)n(-c2cccc(Cl)c2C)c(=O)c2c3c(sc21)CN(C(C)=O)CC3,inactive: 0.706%,–
CC(=O)c1ccc(-n2c(CCC(=O)O)ccc2-c2cccs2)cc1,inactive: 0.0138%,–
O=C(CCS(=O)(=O)c1ccccc1)N(Cc1cccnc1)c1nc2ccc(F)cc2s1,–,active: 4.47 µM
Cc1ccc(C)c(CSc2nnc(C)n3c2cc2sccc23)c1,inactive: 1%,–
CCOc1ccc(CNC(=O)Cn2nc(C)c3c(C)n(-c4ccc(C)cc4)nc3c2=O)cc1,inactive: 11.6%,–
COc1ccc(C(=O)COC(=O)c2cc(-c3cccs3)nc3ccccc23)cc1,inactive: -1.53%,–
COc1ccc(OC)c(Nc2sc(C(=O)c3ccccc3)c(N)c2S(=O)(=O)c2ccccc2)c1,inactive: -1.09%,–
